This is an account of results in ChEMBL document CHEMBL4888484, “Replenishing the malaria drug discovery pipeline: Screening and hit evaluation of the MMV Hit Generation Library 1 (HGL1) against asexual blood stage Plasmodium falciparum ,using a nano luciferase reporter read-out” (2022).

The test relates to Plasmodium falciparum. Put plainly: Primary screen in NF54 nanoGlo assay, in single point, at 2uM, 72h; a lower Z score goes with more inhibition. Type of test: functional, Erythrocyte. As to conditions: timepoint 72 hour.

Structures are written as SMILES. “And” between values parts separate entries of the source, which are not always exact repeats. Equal entries are not always repeated. The campaign covered roughly 150,000 compounds. About 540 (0.36%) showed an effect of 50% or more. Some of the results follow.

The term % Inhibition denotes the change of the read-out against control, counted positive when it falls. As to `Cc1ccc(F)cc1Cn1ccnc1[C@H]1CCOC(C)(C)C1`, the “% Inhibition” value is on record as -5% and the Z score came to 0.68.
The matching figures for `Cc1nc(NCCNc2ccncc2C)c2c(C)noc2n1`: 2% and -0.15.
The matching figures for `COc1ccccc1-c1c[nH]nc1-c1ccc(OCc2c(F)cccc2Cl)cc1O`: 4% and -0.55.
In the case of `COc1cc(NC(=O)Cc2ccc(OC)c(OC)c2)ncn1`, the “% Inhibition” value was 8% and the Z score is given as -1.51.
For the compound `Cc1ccccc1-c1oc(C)c(C)[n+]1[O-]`, the “% Inhibition” value is recorded as 2% and the Z score is reported as -0.28.
As for `O=C(O)C[C@@H]1CCN(C2CCCCC2)C[C@@H]1Cc1nc2cnccc2[nH]1`, the “% Inhibition” value is on record as -3% and the Z score turned out to be 0.6.
The corresponding values for `Cc1ncc(-c2nc(-c3ccccc3)cs2)c(=O)n1CC(=O)N1CCc2ccccc2C1` are -10% and 1.65.
The matching figures for `COc1ccc(Br)cc1CN[C@H]1CCCS(=O)(=O)C1`: -10% and 1.5.
The matching figures for `Cc1cc(C(=O)N(Cc2cc(C3CC3)n(C)n2)C2CCCC2)c(C)o1`: -8% and 1.44.
With `O=C(CCn1c(N2CCCC2)nc2ccccc2c1=O)NCc1ccc(F)cc1`, the “% Inhibition” value is listed as -5% and the Z score is on record as 0.92.
The matching figures for `CC(C)C1CC(CC(=O)N2CCCC(C)C2CCO)CCO1` (stereo unspecified): 3% and -0.46.
As to `CCn1c(C)cc(C(=O)N(C)C2(C#N)CCC2)c1C`, the “% Inhibition” value is listed as -4% and the Z score came out at 0.4.
Turning to `Cc1ccc(Oc2c(CN(C[C@H](O)COc3ccccc3)C3CC3)c(C)nn2-c2ccccc2)cc1`, the “% Inhibition” value is -4% and the Z score turned out to be 0.49.
Turning to `CC(N[C@H](CO)Cc1ccc(O)cc1)c1ccccn1` (stereo partly specified), the “% Inhibition” value is on record as -4% and the Z score amounted to 0.68.
The matching figures for `CN(Cc1cn(C)nn1)[C@@H](C(=O)O)c1cccc(Cl)c1`: -13% and 1.7.
The matching figures for `O=C(Nc1ccc(Cl)cc1C(O)c1ccccc1)c1cnn2c1N[C@@H](c1ccccc1)C[C@H]2C(F)(F)F` (stereo partly specified): 23% and -3.79.
The corresponding values for `CC1CCN(CC(=O)N2CC(CF)C2)CC1` are -9% and 1.33.
On to `Cc1ccc(-n2nc(C(=O)O)c(C)c2Oc2ccc(NC(=O)C3CCC3)cc2S(=O)(=O)NC(C)(C)C)cc1`, for which the “% Inhibition” value is -5% and the Z score was determined as 0.74.
Turning to `CN1CCC[C@H](NC(=O)Nc2cccc(Oc3ccccc3)n2)C1=O`, the “% Inhibition” value was -11% and the Z score was determined as 1.38.
In the case of `CCc1ccc(NC(=O)c2ccc(Oc3ccnc(-c4ccc(F)cc4)n3)cc2)cc1`, the “% Inhibition” value is listed as 5% and the Z score is -0.59.
With `CCn1cc(CN(C)C(=O)c2cccc(-c3ccc(OC)cc3C)c2)cn1`, the “% Inhibition” value is listed as -9% and the Z score stood at 1.09.
As for `O=S(=O)(c1ccc2c(c1)CCO2)N1CC2CC1CO2` (stereo unspecified), the “% Inhibition” value is reported as -10% and the Z score worked out at 1.21.
The matching figures for `COc1ccccc1N1CCN(CCN2C(=O)CCC2=O)CC1`: 10% and -1.82.
The matching figures for `CNC(=O)c1n[nH]c2c1[C@@H](c1cccc(C(=O)OC)n1)CC(=O)N2`: -4% and 0.56.
With `O=S(=O)(NCCn1ccn2nc(-c3ccco3)cc12)C1CC1`, the “% Inhibition” value stood at 4% and the Z score is reported as -0.57.
For `N#Cc1ccc(N2CCC[C@H](n3cncn3)C2)nn1`, the “% Inhibition” value is on record as -7% and the Z score is recorded as 0.84.
`CCN(CC)[C@@H](CNCc1cccc(F)c1F)c1ccco1`: the “% Inhibition” value worked out at 3% and the Z score is -0.52.
The corresponding values for `Cc1cccc(CCN2CCN(C(=O)CO)CC2)n1` are -7% and 1.15.
The matching figures for `CCN(C(=O)[C@H]1CCS(=O)(=O)C1)C1CCCCC1`: -4% and 0.55.
The corresponding values for `CCOc1ccc(CN2CCO[C@@H](CC)C2)cn1` are -10% and 0.92.
As to `Cc1cc(NC(=O)Cc2c(C)noc2C)no1`, the “% Inhibition” value is -5% and the Z score was found to be 0.68.
The corresponding values for `O=C(Nc1cccc(-c2ccco2)c1)N1CCC(C(=O)N2CCCC2)CC1` are -18% and 1.79.
In the case of `COc1ccc(OC)c(CNC(=O)C2CCN(c3ccc(-c4ccccc4)nn3)CC2)c1`, the “% Inhibition” value is -19% and the Z score is given as 1.84.
`CC1(C)C[C@@H](NC(=O)CNS(=O)(=O)c2ccccc2N)CCO1`: the “% Inhibition” value stood at 3% and the Z score is listed as -0.64.
As for `O=S1(=O)N=C(Nc2cc(C(F)(F)F)ccc2N2CCCCC2)c2ccccc21`, the “% Inhibition” value is listed as -9% and the Z score was 0.92.
Regarding `CC1(C(=O)NCCCn2nccc2C2CC2)CCCCC1`, the “% Inhibition” value is on record as -6% and the Z score is listed as 1.11.
The matching figures for `O[C@@H]1COCCN(Cc2cccc3nonc23)C1`: -10% and 1.22.
The corresponding values for `CN(C(=O)CS(=O)(=O)N(C)C)C1CCCC1Cc1ccccc1` (stereo unspecified) are 15% and -1.87.
On to `c1ccc(CN2CCC(N[C@H]3CCc4ccccc4C3)CC2)cc1`, for which the “% Inhibition” value stood at 2% and the Z score is -0.25.
The matching figures for `O=C(COC[C@H]1CCCO1)Nc1cnnn1-c1ccccc1`: -7% and 0.96.
The corresponding values for `CN(C)C(=O)N1CC[C@@]2(O)CCN(Cc3cccc(OC(F)F)c3)C[C@H]2C1` are 4% and -0.66.
As for `Cc1ccc(NC(=O)Cn2c(C)nc3c(-c4ccccn4)nsc3c2=O)c(C)c1`, the “% Inhibition” value is 33% and the Z score is -1.18.
The matching figures for `Cc1nnc(CN[C@@H](C)c2ccc(OC(F)(F)F)cc2)n1C`: -13% and 1.06.
The corresponding values for `O=C(Cc1c(F)cccc1Cl)N1C[C@H]2CCC[C@@H]1C2` are 2% and -0.26.
The matching figures for `Cc1ccc(F)c(NC(=O)C(=O)NCc2csc(C(C)(C)C)n2)c1`: 3% and -0.42.
`C1=C(CCNCc2ccc3c(c2)OCCO3)CCCC1`: the “% Inhibition” value was -13% and the Z score is on record as 1.15.
The matching figures for `CC(C)c1nccc(N[C@@H]2CCCC[C@H]2CO)n1`: 9% and -1.15.
On to `CCN1CCc2c(c(Nc3ccccc3)[nH]c3nnc(N)c2-3)C1`, for which, for the setting “2 µM”, the “% Inhibition” value is -1% and -3%; the Z score is 0.13 and 0.37.
Turning to `COCCNC(=O)c1c(Cc2cccc(F)c2)n(CCCN2CCOCC2)c(C)cc1=O`, the “% Inhibition” value was 1% and the Z score is listed as -0.09.
As to `CCc1noc(-c2c(O)c3cc(F)ccc3n(C)c2=O)n1`, the “% Inhibition” value is reported as -13% and the Z score stood at 1.77.
The matching figures for `Fc1ccc(-c2csc(N3CCC[C@H](c4cn[nH]c4)C3)n2)cc1`: 36% and -1.02.
In the case of `CC(C)[C@@H]1NC(=O)[C@@H]2C[C@@H](CN2C(=O)c2cccc(C(F)(F)F)c2)n2cc(nn2)CNC(=O)[C@@H](Cc2ccccc2)NC1=O`, the “% Inhibition” value is -1% and the Z score came out at 0.17.
`Cc1ccccc1C(=O)N(CCN1CCOCC1)Cc1csc(COc2cccc(C)c2C)n1`: the “% Inhibition” value is on record as 0% and the Z score was found to be 0.02.
